Measurements published in PubChem BioAssay AID463173 (ICCB-Longwood Screening Facility, Harvard Medical School, 2010).
Among all 52,000 compounds or so, about 1,700 (3.3%) were called active. No stated cut-off is given here; in the data, active means survival mostly below about 52% (no sharp cut-off); inactive means mostly above about 56%. The list shows a part of the results.

Each compound was assayed on Wild type (assay: growth inhibition of S. aureus wild type versus tarO mutant, primary screen, teichoic acid synthesis inhibitors, RN4220, OD600 (AID 463173)). Conditions: S. aureus RN4220 wild type/DeltatarO growth, OD600, 18 h, stronger effect = lower value, screened at 18.75 µg/mL (by protocol).

Compound | survival
Cc1cccc(N2CCN(c3ncnc4onc(-c5ccc(F)cc5)c34)CC2C)c1 (stereo unspecified) | inactive: 85%
Cc1ccc(NC(=O)CCc2nc3cccnc3n2-c2ccccc2)cc1 | inactive: 75%
COc1cccc2cc(C(=O)Nc3ccc(S(=O)(=O)N4CCOCC4)cc3)c(=O)oc12 | inactive: 102%
Cc1cc(C)c2oc(-c3ccc(NC(=O)c4cc(Br)ccc4Cl)cc3)nc2c1 | inactive: 103%
O=C(Cn1c(=O)n(Cc2ccc(C(=O)NCc3ccccc3Cl)cc2)c(=O)c2ccccc21)Nc1ccc(F)cc1 | inactive: 80%
Cc1coc2cc3oc(=O)c(CC(=O)NCCc4ccccc4F)c(C)c3cc12 | inactive: 85%
CC(C)(C)C(=O)Nc1ccc(Cl)c(-c2nc3ccccc3[nH]2)c1 | inactive: 75%
CN(Cc1ccccc1)c1nc(-c2ccc(F)cc2)cc(C(F)(F)F)n1 | inactive: 80%
O=C(COc1ccccc1F)Nc1ccc(C(=O)OCc2cc(=O)n3nc(C4CC4)sc3n2)cc1 | inactive: 129%
CCCCN(C)CCNC(=O)c1cc(-c2cccnc2)nc2ccc(S(=O)(=O)N3CCC(C)CC3)cc12 | inactive: 71%
Cc1ccn2c(c1)nc(=O)c1cc(S(=O)(=O)N3CCC(C)CC3)c(Cl)cc12 | inactive: 75%
O=C(Nc1ccc(Cl)cc1Cl)c1cc(S(=O)(=O)N2CCN(c3ccccc3F)CC2)ccc1F | inactive: 73%
Cc1ccc(-c2cc3ncc(C(=O)c4cc([N+](=O)[O-])ccc4O)cn3n2)cc1 | active: 15%
Cc1ccc(NC(=O)CCSCCc2ccccn2)cc1 | inactive: 78%
COc1ccc2cc(CN(Cc3nnnn3Cc3ccccc3)C3CCCC3)c(=O)[nH]c2c1 | inactive: 116%
CCc1ccc(-n2c(C)nnc2SCc2nc(-c3ccc(OC)cc3)no2)cc1 | inactive: 74%
CCC(C(=O)Nc1cccc(-c2cn3cccnc3n2)c1)c1ccccc1 (stereo unspecified) | inactive: 93%
CC(C)c1ccc(NC(=O)N2CCCC2C(=O)Nc2ccc(-n3cnnn3)cc2)cc1 (stereo unspecified) | inactive: 104%
COc1ccc(Br)cc1CNC(=O)CCCn1c(=O)c2cccn2c2ccccc21 | inactive: 50%

Compound | survival
Cc1cccc(-c2nnc(-c3ccccc3)o2)c1 | inactive: 112%
CCC(Oc1ccccc1F)C(=O)Nc1c(C(=O)c2ccccc2)oc2ccccc12 (stereo unspecified) | inactive: 54%
CC(C)(C)OC(=O)N1CCC(c2c(C(=O)NCc3ccc4c(c3)OCO4)cnn2-c2ccc(F)cc2F)CC1 | inactive: 84%
O=C(Nc1ccc(Cl)cc1)C1CCN(c2nc3ccccc3n3cccc23)CC1 | inactive: 97%
CN(C)c1ccc(C(CNS(=O)(=O)c2ccc(Cl)cc2)N2CCCC2)cc1 (stereo unspecified) | active: -3%
CC1=C(C(=O)Nc2ccc(C)cc2C)C(c2ccccc2C)n2ncnc2N1 (stereo unspecified) | inactive: 73%
COc1ccc(CCNC(=O)NCc2noc3ccccc23)c(OC)c1 | inactive: 89%
CC(=O)NS(=O)(=O)c1ccc(NC(=O)c2ccco2)cc1 | inactive: 103%
COc1cccc(-c2nnc3n(Cc4ccc(F)cc4)c(=O)c4ccccc4n23)c1 | inactive: 81%
COc1cc(NC(=O)c2noc3c2CCc2ccccc2-3)cc(OC)c1OC | inactive: 82%
Cc1ccc(-c2noc(CN(C3CCCCC3)S(=O)(=O)c3ccc(C)cc3)n2)cc1 | inactive: 85%
Cc1nn(-c2ccc3nncn3n2)c(C)c1CCC(=O)Nc1ccc(OC(F)(F)F)cc1 | inactive: 99%
COc1cc(C(=O)NCC(c2cccnc2)N2CCN(c3ccc(F)cc3)CC2)cc(OC)c1OC (stereo unspecified) | inactive: 85%
Cc1cccc(-c2nc3c(C#N)c[nH]n3c2NC2CCCCC2)c1 | inactive: 59%
Cc1ccccc1CNC(=O)c1ccc(-n2c(C)cc3c2CCCC3)cc1 | inactive: 127%
COc1cccc(CC(NC(C)=O)C(=O)NC2CCN(c3nc(C)cc(C)n3)CC2)c1OC (stereo unspecified) | inactive: 112%
COc1ccccc1CNC(=O)C1CCN(Cc2nc(-c3ccc(OC)c(OC)c3)oc2C)CC1 | inactive: 123%
Cc1ccc(OCCn2c(-c3ccc(Cl)cc3)nc3ccccc3c2=O)c(C)c1 | inactive: 68%
c1ccc(CCn2nnnc2CN2CCCc3ccccc32)cc1 | inactive: 112%

Compound | survival
CCCN(C(=O)c1cc2c(Cl)nc3ccccc3c2s1)c1cccc(C)c1 | active: 1%
COCCNC(=O)c1ccc(Cn2c(SCC(=O)NC(C)C)nc3ccccc3c2=O)cc1 | inactive: 79%
CCCN(CCC)C(=O)Cn1c(=O)n(Cc2ccc(C(=O)NCCc3ccc(OC)c(OC)c3)cc2)c(=O)c2ccccc21 | inactive: 135%
CCOc1cc(CNc2ccc(O)cc2)cc(Br)c1OCc1ccccc1 | active: -5%
COc1ccc(CNC(=O)c2ccc3c(c2)N(Cc2ccccc2)C(=O)c2ccccc2S3(=O)=O)cc1 | inactive: 87%
COc1ccc(-c2cc3nc(C4CCN(C(=O)OC(C)(C)C)CC4)c(C(=O)Nc4cc(Cl)cc(Cl)c4)cn3n2)cc1 | inactive: 80%
CCOc1ccccc1N(C)C(=O)c1nn(-c2ccc(C)cc2)c(=O)c2c1c1ccccc1n2C | inactive: 135%
COc1ccc(OC)c(NC(=O)c2csnn2)c1 | inactive: 86%
COCCCNC(=O)c1cc(-c2cccnc2)nc2ccccc12 | inactive: 118%
CCOc1ccccc1-c1nnc(SCc2ccc(Cl)cc2)o1 | active: -14%
COc1ccc(-n2c(SCC(=O)N3CCC(C)CC3)nc3c([nH]c4ccccc43)c2=O)cc1 | inactive: 79%
CC1=C(C(=O)Nc2ccc(C)cc2C)C(c2sccc2C)n2ncnc2N1 (stereo unspecified) | inactive: 74%
CCc1nnc(SCC(=O)Nc2ccc3c(c2)OCO3)n1CC1CCCO1 (stereo unspecified) | inactive: 116%
CCOc1cccc(C2c3c(oc4ccccc4c3=O)C(=O)N2c2nc(C)c(C(=O)OC)s2)c1 (stereo unspecified) | inactive: 66%
OC(COCc1ccccc1)CN1CCCC1 (stereo unspecified) | inactive: 108%
Cc1ccc2occ(CC(=O)Nc3nnc(C(C)C)s3)c2c1 | inactive: 91%
O=C(Nc1nnc(S(=O)(=O)N2CCCc3ccccc32)s1)c1ccccc1Br | inactive: 27%
Cc1ccc(CNC(=O)CCCCn2c(=O)c3ccccc3n(Cc3ccc(Cl)cc3)c2=O)cc1 | inactive: 119%
